Assay results from PubChem BioAssay AID493208 (National Center for Advancing Translational Sciences (NCATS), 2011).
About 340 (0.77%) of roughly 44,000 compounds were called active. About 5% were inconclusive and are not listed. The call rests on the fitted dose curve; in most records, active means well fitted inhibition curve with a large enough effect; inconclusive means small, poorly fitted or top-dose-only effect; inactive means flat fitted curve, though single readings scatter. The list shows a part of the results.

Experiment: Acumen qHTS Assay for Inhibitors of the mTORC1 Signaling Pathway in MEF (Tsc2-/-, p53-/-) Cells: Sytravon;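 further: plate controls were DMSO for no effect and rapamycin for full effect; nearly all actives have a fitted effect of over 50% in size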
Settings: phospho-rpS6 immunofluorescence/PI, 24 h; series mostly up to 38.3 µM; activity change, negative = inhibition: at the top concentration
In short: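 Tsc2-/-, p53-/- mouse embryonic fibroblasts (empty-vector line) exposed to compound 24 hrs at 37 C, fixed, immunostained for phospho-rpS6 and counterstained with propidium iodide. Acumen laser scanning gives % positive cells from Alexa 488/PI ratio, thresholded using 7.5 nM rapamycin; PI count gives viability.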

Activity change, negative = inhibition, inactive:
CCCCn1c(CNC(=O)C23CC4CC(CC(C4)C2)C3)nnc1SCC(=O)Nc1ccc(C)cc1 -13.6%
COCCSc1nc2c([nH]c3ccccc32)c(=O)n1-c1ccc(OC)c(OC)c1 -15.5%
CC1CCCCN1Cc1c(O)ccc2c(=O)c(-c3ccccc3Cl)c(C(F)(F)F)oc12 (configuration not stated) -14.4%
Cc1ccc(C2CC(=O)Nc3cc4c(cc32)OCCO4)cc1Br (configuration not stated) -6.05%
CCOc1ccc(CCNC(=O)c2cc(=O)[nH]c3ccc(S(=O)(=O)N4CCCCC4C)cc23)cc1OCC (configuration not stated) 6.43%
Fc1ccccc1-c1nc(N2CCN(c3cccc(Cl)c3)CC2)c2ccccc2n1 -8.11%
COCCNC(=O)Cn1ccc2cc(S(=O)(=O)N3CCCCCC3)ccc21 0.0831%
Cc1ccc(-c2noc(CCC(=O)N(C)c3ccccc3F)n2)cc1 -10%
CCn1c(=O)c2c(nc3n2CCN3c2ccc(OC)cc2)n(C)c1=O -4.41%
COc1ccc(CNC(=O)CCc2c(C)nc3c(c(C)nn3-c3ccccc3)c2C)cc1 -2.71%
CCOC(=O)c1c(C)n(-c2ccc(OC)cc2)c2ccc(OC(=O)COc3ccccc3)cc12 -6.98%
Cc1ccc(-n2ncc3c(Nc4cccc(Cl)c4)ncnc32)c(C)c1 -0.318%
O=C(Cn1nnnc1-c1ccccc1F)Nc1ccc(OC(F)(F)F)cc1 -1.73%
CCc1ccc(CNC(=O)CCc2c(C)nn(-c3ccc(N4CCCC4)nn3)c2C)cc1 -0.372%
COc1cc(NC(=O)C2=CC(c3ccc(F)cc3)=NS(=O)(=O)N2C)cc(OC)c1OC 0.626%
CC(C)c1nnc(N2C(=O)c3oc4ccccc4c(=O)c3C2c2ccccc2F)s1 (configuration not stated) 1.03%
CCN(Cc1ccccc1)C(=O)C1CCN(S(=O)(=O)c2ccc3c(c2)CCCN3C(C)=O)CC1 -2.98%
O=C(CSc1nccn1Cc1ccc(F)cc1)Nc1nc2ccccc2s1 -0.904%
Cc1cccc(CC(=O)N2CC(=O)Nc3ccc(Br)cc3C2c2ccc(F)cc2)c1 (configuration not stated) 5.04%
CCc1cccc(-n2nnc(-c3nsc(NC(=O)c4cccc(OC)c4)n3)c2C)c1 -4.5%
O=C(Cn1ncc2c3ccccc3n(Cc3ccccc3F)c2c1=O)NCc1ccccc1Cl -5.35%
Cc1cc2c(cc1S(=O)(=O)Nc1cccc(C#N)c1)OCC(=O)N2 -4.22%
N#Cc1ccc(-c2cccs2)nc1SCc1ccc(Br)cc1 3.97%
COc1ccc(-n2nc(C(=O)N3CCCCC3C)c3c4ccccc4n(C)c3c2=O)cc1Cl (configuration not stated) 4.47%
Cc1coc2c(C)c3oc(=O)c(CCC(=O)NCCc4ccccc4F)c(C)c3cc12 2.45%
CCOC(=O)c1ccc(NC(=O)Cn2c(=O)cc(C)c3c(C)nn(-c4ccc(CC)cc4)c32)cc1 -10.2%
COc1cccc(C(=O)Nc2ccccc2C(=O)OCc2cc(=O)n3c4c(sc3n2)CCCC4)c1 0%
COc1ccc(CNC(=O)CN(C)S(=O)(=O)c2ccc3nc(C)sc3c2)cc1 -2.3%
COc1cccc(/C=C/c2nc(C#N)c(N3CCC(C(N)=O)CC3)o2)c1 -1.18%
COc1ccc(Br)cc1S(=O)(=O)Nc1cc(-c2cn3ccccc3n2)ccc1C -2.57%
Cc1ccc(C2C=C(c3ccccc3)Nc3nc(NS(=O)(=O)c4ccccc4)nn32)cc1 (configuration not stated) 1.05%
CCOc1ccc(CCNC(=O)c2cn(-c3ccc(OC)cc3)c(=O)c3ccccc23)cc1OCC 10.4%
CN(Cc1ccccc1)C(=O)c1ccc(CSc2nc3cccnc3n2Cc2ccccc2F)cc1 0.881%
COc1ccc(NC(=O)Cn2c(=O)n(CCC(=O)NCC3CCCO3)c(=O)c3cc(OC)c(OC)cc32)cc1 (configuration not stated) 2.17%
COc1ccccc1Nc1sc(C(=O)c2ccc(F)cc2)c(N)c1S(=O)(=O)c1ccc(C)cc1 0.67%
COc1ccc(-c2noc(-c3ccc(N4CCCC4)c([N+](=O)[O-])c3)n2)cc1OC 0.462%
CCc1ccc(-n2nc(C)c3c(C(=O)N4CCN(c5ccccc5)CC4)cc(C)nc32)cc1 -5.27%
CCOc1ccc(CNC(=O)C2CCCN(c3nnc(C)c4c(C)n(-c5ccccc5)nc34)C2)cc1 (configuration not stated) 1.81%
CCOc1cc(C2NC(=O)c3c(sc4c3CCN(C)C4)N2)ccc1OC(=O)c1ccc(Br)cc1 (configuration not stated) 5.17%
Cc1nn2c(C)c(C(=O)NC(C)c3ccccc3)cnc2c1-c1ccc(F)cc1 (configuration not stated) -1.6%
COc1ccc(NC(=O)c2ccco2)cc1NC(=O)C(C)(C)Oc1ccc(Cl)cc1 3.53%
CCOc1ccc(NC(=O)Cn2cnc3sc(C)c(S(=O)(=O)N4CCN(c5ccccc5OC)CC4)c3c2=O)cc1 9.05%
COc1ccc(C)cc1NC(=O)c1cc2c(=O)n3cccc(C)c3nc2s1 0.567%
CCC(=O)N1CCCc2cc(S(=O)(=O)N3CCC(C(=O)NCc4ccc(F)cc4)CC3)ccc21 -0.694%
Cc1cccc(C)c1-n1ncc(C(=O)O)c1C1CCN(C(=O)OC(C)(C)C)CC1 0.421%
COc1ccc(Cl)cc1NC(=O)c1cn(C2CCCC2)c(=O)c2c1c1ccccc1n2C -9.64%
Cc1cccc(N(CC(=O)Nc2ccccc2C(F)(F)F)S(=O)(=O)c2ccccc2)c1C -23.7%
COc1ccc(OC)c(C2CC(=O)Oc3c2c(=O)n(C)c2ccccc32)c1 (configuration not stated) -3.46%
O=C(NCC(c1cccs1)S(=O)(=O)c1ccccc1)c1ccc(C(F)(F)F)cc1 (configuration not stated) -2.82%
O=C(Nc1ccc(F)cc1)c1ccc2c(=O)n3c(nc2c1)CCCCC3 -0.431%
COCCCNC(=O)CSc1nc2c(sc3ccccc32)c(=O)n1CCc1ccc(OC)c(OC)c1 -5.81%
CN(C)CCNC(=O)Cn1ccc2cc(S(=O)(=O)N3CCCCCC3)ccc21 3.62%
Cc1cccc(Cn2c(-c3cccc(Br)c3)nc3ccccc32)c1 -0.661%
CCOc1ccccc1NC(=O)CCc1c(C)nn(-c2ccc(N3CCCCC3)nn2)c1C -12%
COc1ccccc1C(=O)NC1(C(F)(F)F)C(=O)Nc2c1c(=O)[nH]c(=O)n2-c1ccc(F)cc1 (configuration not stated) 0.22%
Cc1cc(Cl)ccc1OCC(=O)N(Cc1ccco1)Cc1ccccc1F -0.281%
COc1ccc(CNC(=O)CSc2ncc3c(n2)-c2ccc(Cl)cc2N(Cc2ccccc2)S3(=O)=O)cc1 -18.6%
Cc1cc(C)cc(NS(=O)(=O)c2ccc3[nH]cc(C(=O)NCc4ccccc4Cl)c(=O)c3c2)c1 -0.598%
O=C(CSc1nnc(-c2ccc([N+](=O)[O-])cc2)o1)Nc1ccccc1 -0.951%
COc1cc(NC(=O)Cn2c(=O)n(Cc3ccco3)c(=O)c3oc4ccccc4c32)cc(OC)c1 -11.1%
Cc1ccc(-c2nc(Cn3c(=O)cc(-c4ccccc4)c4c(C)nn(C)c43)c(C)o2)cc1 -9.45%
Cc1ccc(OCCn2nnc3sc4c(c3c2=O)CCC(C)C4)cc1 (configuration not stated) -2.96%
CCOc1ccc(C(=O)N2CCC(c3noc(-c4ccc(S(=O)(=O)N5CCCC5)cc4)n3)CC2)cc1 -3.38%
CN(C1CCCCC1)S(=O)(=O)c1ccc2c(c1)c(=O)c(C(=O)N1CCN(c3ccccc3F)CC1)cn2C 0.113%
CCc1c(-c2ccccc2)nc2ccccc2c1C(=O)NCc1ccc(C)cc1 12.4%
Cn1cnc(S(=O)(=O)N2CCC(C(=O)N3CCN(c4ccccc4F)CC3)CC2)c1 9.1%
CSc1cccc(NS(=O)(=O)c2cn(C)c(C)n2)c1 -0.264%
CCOc1ccc2c(c1)NC(c1cccs1)=NC(c1ccc(F)cc1)=N2 2.87%
COc1ccc(N2CCN(c3nc4ccc(C)cc4n4nnnc34)CC2)cc1 1.07%
O=C(Nc1ccc(Br)cc1F)N1CCC2(CC1)Oc1ccccc1C(=O)N2Cc1ccccc1F 0.0884%
CCN(c1ccccc1)c1nnc(NC(=O)Nc2ccc(Br)cc2F)s1 -14.3%
O=C1CSC2(C(=O)N(Cc3ccccc3)c3ccccc32)N1c1ccc(Cl)cc1 (configuration not stated) -1.59%
COc1ccc(C2C(C(=O)Nc3ccc(C)cc3C)=C(C)Nc3nc4ccccc4n32)c(OC)c1 (configuration not stated) -3.33%
COc1ccc2occ(CC(=O)Nc3ccc(S(=O)(=O)Nc4nc(C)cc(C)n4)cc3)c2c1 -6.25%
COC(=O)c1cc(NC(=O)Cn2nc(-c3ccc(C)c(C)c3)ccc2=O)cc(C(=O)OC)c1 -13.7%
CCC(C)NC(=O)C1=CC(c2ccc3c(c2)OCO3)=NS(=O)(=O)N1C (configuration not stated) 1.98%
O=C(CN1C(=O)COc2ccc(S(=O)(=O)Nc3ccccc3)cc21)Nc1cccc(Cl)c1 0%
COc1cccc2c1Oc1ncccc1N(C(=O)CCC(=O)NCc1ccccc1Cl)C2 1.12%
COc1ccc2c(c1)cc1c(=O)n(CC(=O)NCCCc3ccccc3)nc(C)n12 1.93%
COC(=O)c1ccc(Cn2nnc3c(=O)[nH]c(C4CCCN(S(=O)(=O)c5cccc(Cl)c5)C4)nc32)cc1 (configuration not stated) -0.0411%
CCOc1ccc(-c2cc(-c3nc(-c4ccc(OC)c(OC)c4)no3)[nH]n2)cc1 -3.21%
Cc1ccccc1CSc1ncc(CO)n1Cc1ccc(F)cc1 1.4%
COc1ccc(Cc2nc3ccccc3n2Cc2ccccc2F)cc1 0.998%
CCN(C(=O)Cn1cnc2sc(C)c(S(=O)(=O)N3CCN(c4ncccn4)CC3)c2c1=O)c1ccccc1F -7.26%
COc1ccc(-c2cn3cccnc3n2)cc1NC(=O)c1cc(C)cc(C)c1 -4.51%
Cc1cc(Cl)ccc1OCC(=O)N(Cc1ccco1)Cc1ccco1 -4.87%
COc1ccc(-c2nnc(C3CCN(S(=O)(=O)c4ccc(C)c(C)c4)CC3)o2)cc1 5.97%
Cc1ccc(-n2ncc(C(=O)N3CCN(c4ccc(Cl)cc4)CC3)c2C2CCN(C(=O)OC(C)(C)C)CC2)c(C)c1 -0.0346%
CCOC(=O)c1ccc(NC(=O)c2ccc(=O)n(Cc3cccc(C)c3)c2)cc1 -16.6%
CC(O)CNc1nc2c(c(=O)n(Cc3ccc(Cl)cc3)c(=O)n2C)n1C (configuration not stated) -12.5%
COc1ccc(CCNC(=O)CCc2c(C)c3cc4c(C)coc4c(C)c3oc2=O)cc1OC -1.55%
Cc1cc2c(cc1S(=O)(=O)CCC(=O)NCCc1ccccc1)OCC(=O)N2 11.5%
